PubChem BioAssay AID652104 (National Center for Advancing Translational Sciences (NCATS), 2013)
Out of some 410,000 compounds screened, about 7,200 (1.8%) were called active. Inconclusive results, whose numbers are uncertain, are shown with a selection of clear calls. Calls follow the shape of the dose curve; as a rule, active = well fitted activation curve with a large enough effect; inconclusive = small, poorly fitted or top-dose-only effect, or another doubt; inactive = no such curve, though single readings can be large or run the other way. Potencies beside an inconclusive call are fits to weak or partial responses and may not hold up.

Experiment: qHTS of TDP-43 Inhibitors; also: nearly all actives have a fitted effect of over 50% in size; as to growth rescue (activation): % of control where 0% means no effect
Settings: TDP-43 expressing yeast growth rescue, BacTiter-Glo, 24 h; growth rescue (activation): at 46.1 µM (top of the series) unless noted
Method in brief: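 In this qHTS, compounds that restore growth of yeast expressing TDP-43 appear as activators. Cells (OD600=0.02, galactose medium, raffinose-pregrown) are incubated with compound 24 hr at 30 deg C and growth is quantified by BacTiter-Glo.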
Potency is read from the fitted curve at half-maximal effect; tags tell the direction and shape of the fitted curve.

Potency, inactive:
O=C(Nc1cccc2ccccc12)N1N=CCC1c1ccccc1 (stereo not given)
CCOc1ccc(C(=O)NCc2nc(-c3ccc(Cl)cc3)no2)cc1OCC
CCCC(c1nnnn1C1CCCC1)N1CCN(c2ccccc2F)CC1 (stereo not given)
CCC(Cn1nnc2ccccc2c1=O)NC(=O)Nc1ccccc1Cl (stereo not given)
O=C(NCCC1=CCCCC1)c1cc(COc2ccc(F)cc2Cl)on1
CCS(=O)(=O)N1CCc2cc(C(=O)NCc3ccc(C)cc3)ccc21
COC(=O)c1ccc2c(=O)n(CCCCCC(=O)N3CCN(c4cccc(C)c4C)CC3)c(=O)[nH]c2c1
COCCCNc1nc2c(-c3cccc(Br)c3)nnn2c2ccccc12
Cc1ccc(NC(=O)CC(c2ccc(F)cc2)N2Cc3ccccc3C2=O)cc1C (stereo not given)
CCOC(=O)c1ccc(NC(=O)CN(C)S(=O)(=O)c2ccc(Br)s2)cc1
Cc1ccc(CNC(=O)Cn2c(-c3cccs3)cc3cc(Cl)ccc32)cc1
CC(Oc1cccnc1[N+](=O)[O-])C(=O)Nc1ccc(Cl)cn1 (stereo not given)
CC(=O)Nc1cc(-c2cccc(C(=O)NCCN(C)C)c2)cn2c(-c3ccc(S(C)(=O)=O)cc3)cnc12
COc1cccc2c1C(=O)c1c(O)c3c(c(O)c1C2=O)C[C@@](O)(C(=O)CO)C[C@@H]3OC1CC(N)C(O)C(C)O1 (stereo not given in full)

Potency, inconclusive:
O=C(NC1CC1)c1sc2cc(Cl)ccc2c1Cl 6.31 µM [activator, partial curve]
Cc1cc(C(=O)N2CCC2(C)C(=O)Nc2cccc3ccccc23)nn1C (stereo not given) 6.31 µM [activator, partial curve, poor fit]
Cc1ccc(C)c(NC(=O)C2COc3ccccc3O2)c1 (stereo not given) 11.2 µM [activator, partial curve]
CCOC(=O)N/N=C/c1cc(C)n(-c2cccc3ccccc23)c1C 20 µM [activator, single point]
O=S(=O)(c1ccc(Cl)cc1)N1CCN=C1SCc1ccc(Cl)c(Cl)c1 35.5 µM [activator, single point]
CCOC(=O)CC(=O)COc1nc2cc3c(nc2o1)CCCC3 7.94 µM [activator, partial curve]
O=C(Cc1ccccc1)c1ccc2c(c1)OCCO2 11.2 µM [activator, partial curve]
COc1ccc(-c2cc3nc(-c4ccccc4)cc(N4CCN(C(=O)c5ccsc5)CC4)n3n2)cc1 11.2 µM [activator, partial curve]
Cc1ccc(COC(=O)Cc2coc3cc(O)ccc23)cc1 7.08 µM [activator, partial curve]
CC(C)Cc1cc(C(=O)Nc2cccc(O)c2)no1 11.2 µM [activator, partial curve]
O=C(CS(=O)(=O)c1ccccc1)N1CCN(c2ccccc2)CC1 35.5 µM [activator, single point]
O=S(=O)(Nc1nc2ccccc2nc1NCC1CCCO1)c1cc(Cl)ccc1Cl (stereo not given) 35.5 µM [activator, single point]
Cc1onc(-c2ccccc2)c1C(=O)Nc1sc2c(c1C#N)CCC2 25.1 µM [activator, single point]
CCCC(=O)n1nc(-c2ccco2)nc1SCc1ccccc1 3.55 µM [activator, partial curve]
COc1ccc(N2CCN(c3cc(C)c4cccc(C)c4n3)CC2)cc1 2 µM [activator, partial curve]
Cc1c(C(=O)OCC(=O)N(C)Cc2ccc(Cl)cc2)oc2ccccc12 15.8 µM [activator, single point]
CCc1cccc(NS(=O)(=O)c2ccc3c(c2)n(C)c(=O)n3C)c1 28.2 µM [activator, single point]
Cc1ccc(OCC(=O)N2CCN(C(=O)CCC3CCCC3)CC2)cc1 31.6 µM [activator, partial curve]
COc1ccc(-c2cnc3c(NC(C)=O)cc(-c4ccc(C(=O)N5CCOCC5)cc4)cn23)cc1OC 31.6 µM [activator, partial curve]
O=C(Nc1ccc(F)cc1F)c1ccc2ncsc2c1 3.55 µM [activator, single point]
Cc1[nH]ncc1Nc1ccccc1C(C)C 10 µM [activator, partial curve]
CC(=O)c1cccc(NC(=O)C2C(c3ccccc3)C2(Cl)Cl)c1 (stereo not given) 20 µM [activator, single point]
Cc1nn(-c2nnc(NC3CCCCC3)nn2)c(C)c1Br 35.5 µM [activator, single point]
Cn1nc(-c2ccccc2F)c2cc(C(=O)N3CCN(c4ccccc4F)CC3)sc21 20 µM [activator, partial curve]
Cn1cccc1-c1cc2n(n1)CCC(=O)N2CC(=O)Nc1ccc(F)cc1Cl 35.5 µM [activator, single point]
Cc1cc(-c2ccc(Cl)s2)n[nH]1 35.5 µM [activator, partial curve]
CCOc1cc(CNc2ccc(O)cc2)cc(Cl)c1OCc1ccccc1 22.4 µM [activator, partial curve]
O=C1OCCN1C(=O)[C@H]1[C@H](c2ccccc2)C(c2cccc(Cl)c2)=NN1c1ccc(Br)cc1 5.62 µM [activator, single point]
CCCc1cc(C(=O)N2CCCC(CO)(CCCc3ccccc3)C2)n(C)n1 (stereo not given) 1.12 µM [activator, partial curve, poor fit]
CCOCCCNc1nc2c(-c3ccccc3)nnn2c2ccccc12 3.16 µM [activator, full curve]
Nc1c(-c2ccc(Cl)cc2)cnc2c(-c3ccccc3)cnn12 6.31 µM [activator, single point]
Cc1c(C(=O)NCc2ccc(Cl)cc2)sc2nc3n(c(=O)c12)CCC3 35.5 µM [activator, single point]
CCc1cc(SC#N)cc(C)c1NC(=O)CCl 31.6 µM [activator, single point]
COc1ccc(CCNC(=O)COC(=O)Cc2ccc(OC)cc2)cc1 14.1 µM [activator, partial curve]
C=CCc1cccc2ccc(=O)oc12 7.08 µM [activator, partial curve]
CCOc1ccc(CN(C)C(=O)c2ccc(S(=O)(=O)N(C)c3ccccc3OC)cc2)cc1 31.6 µM [activator, partial curve]
O=c1[nH]c2ccccc2c(=O)c2ccccc12 11.2 µM [activator, partial curve]
O=C(NCc1ccccc1)c1cc2ccc(O)cc2oc1=O 5.62 µM [activator, single point]
O=C(c1ccc(F)cc1)C1CCN(C(=O)c2ccccc2F)CC1 20 µM [activator, partial curve, poor fit]
COc1cccc(CNC(=O)c2cc(COc3c(F)cccc3F)on2)c1 12.6 µM [activator, partial curve]
CC(Oc1cccc([N+](=O)[O-])c1)C(=O)NCCC1=CCCCC1 (stereo not given) 35.5 µM [activator, partial curve]
O=C(Nc1ccccc1SC(=O)c1ccccc1)c1ccccc1 2.24 µM [activator, partial curve, poor fit]
O=C(CSc1ncn[nH]1)NCc1ccc(Cl)cc1 12.6 µM [activator, single point]
Cc1cccc(S(=O)(=O)NC(=O)C2(C)CCN2C(=O)c2ccc(C3CCCCC3)cc2)c1 (stereo not given) 20 µM [activator, partial curve]
Cc1ccc(C)c(C(=O)CCC(=O)N2CCN(c3cccc(C(F)(F)F)c3)CC2)c1 14.1 µM [activator, single point]

Potency, active:
CCC1CCc2sc(C(=O)O)cc2C1 (stereo not given) 14.1 µM
Cc1ccc(C(=O)c2cc3c(cc2[N+](=O)[O-])OCCO3)cc1 12.6 µM
CC(C)c1ccc(NC(=O)C2Cc3c(-c4ccc5c(c4)OCO5)ccnc3O2)cc1 (stereo not given) 35.5 µM
O=C(CSc1ccc2c(c1)OCCO2)Nc1ccc(Br)cn1 12.6 µM
O=C1C(=C(c2ccccc2)N2CCOCC2)Cc2ccccc21 12.6 µM
O=C(CSCc1ccccc1Cl)N/N=C/c1ccco1 12.6 µM
Cc1cc(Br)c(NC(=O)COC(=O)C2CCCCC2)c(Br)c1 15.8 µM
CC1CN(C(=O)c2ccccc2OCc2ccc(Cl)cc2Cl)CC(C)O1 (stereo not given) 28.2 µM

Growth rescue (activation), inconclusive:
COc1ccc(N=C2C=CC(=O)O2)cc1 -92.7% [activator]
CC(=O)c1ccc(NC(=O)C(C)OC(=O)C2CCN(c3ccc(C(F)(F)F)cn3)CC2)cc1 (stereo not given) 31.5% [activator]

Growth rescue (activation), inactive:
COc1cc(OC)c(N(C)C(=O)c2cc3c(s2)-c2ccccc2OC3)cc1Cl -2.72% [at 9.22 µM]
